Measurements reported in PubChem BioAssay AID504637 (National Center for Advancing Translational Sciences (NCATS), 2011).
Among all 1,100 compounds or so, about 430 (39%) were called active. So high a share suggests a set chosen from earlier hits. The inconclusive results got no clear call from the source; some entries with a clear call stand among them for comparison. The call rests on the fitted dose curve; in most records, active means well fitted inhibition curve with a large enough effect; inconclusive means small, poorly fitted or top-dose-only effect, or effect the other way; inactive means flat fitted curve, though single readings scatter. Where the call is inconclusive, the potency comes from a doubtful curve fit.

What follows are molecules tested against ATP-dependent 6-phosphofructokinase (Trypanosoma brucei brucei) (UniProt O15648) (assay: Inhibitors of T. brucei phosphofructokinase: Hit Validation). Conditions: purified T. brucei PFK, ADP-Glo luminescence, 45 min; series mostly up to 57.5 µM; activity change, negative = inhibition: at the top concentration.
Further: nearly all actives have a fitted effect of over 60% in size.
Potency means the concentration at half of the fitted maximal effect; tags describe the fitted curve by direction and shape.
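Wherever activity change, negative = inhibition is given: plate controls were full PFK enzyme control for no effect and no enzyme control for full effect.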

UniProt O15648, sequence (O15648 whole entry, looked up): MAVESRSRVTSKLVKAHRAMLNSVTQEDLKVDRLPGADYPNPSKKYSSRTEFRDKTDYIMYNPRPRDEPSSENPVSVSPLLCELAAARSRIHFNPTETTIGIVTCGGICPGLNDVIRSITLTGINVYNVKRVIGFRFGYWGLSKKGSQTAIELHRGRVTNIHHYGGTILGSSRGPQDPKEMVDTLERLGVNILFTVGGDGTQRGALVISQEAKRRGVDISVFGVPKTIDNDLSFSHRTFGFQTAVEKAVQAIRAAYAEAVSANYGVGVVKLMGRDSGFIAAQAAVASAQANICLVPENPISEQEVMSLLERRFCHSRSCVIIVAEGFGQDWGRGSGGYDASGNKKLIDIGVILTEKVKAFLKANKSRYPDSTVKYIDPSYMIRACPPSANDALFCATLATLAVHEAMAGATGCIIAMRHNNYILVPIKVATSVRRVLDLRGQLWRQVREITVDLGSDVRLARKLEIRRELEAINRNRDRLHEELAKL

SMILES | Potency | activity change, negative = inhibition
COc1ccc(NC(=O)CNc2cccc(C#N)c2)cc1Cl | inconclusive: 21.3 µM [inhibitor, single point] | 
COc1ccc(CN2C(=O)c3cccnc3C2O)cc1 (stereo not given) | inconclusive: 30.1 µM [inhibitor, single point] | 
O=[N+]([O-])c1ccc(N2CCN(C(=S)c3cccc([N+](=O)[O-])c3)CC2)cc1 | active: 23.9 µM | 
O=C(O)c1cc(-c2ccco2)nn1-c1ccc(Cl)cc1 | inconclusive: 23.9 µM [inhibitor, single point] | 
Cc1nn(C)cc1/C=N\NC(=O)c1ccc(Cn2cc(Cl)cn2)cc1 | inconclusive: 30.1 µM [inhibitor, single point] | 
O=C(C1CCN(c2ncnc3c2nc2n3CCCCC2)CC1)N1CCN(c2cccc(Cl)c2)CC1 | inconclusive: 26.9 µM [inhibitor, single point] | 
O=C(NN1C(=O)CSC1=S)C(=O)NN1C(=O)CSC1=S |  | inactive: -9.5%
Cc1cc2c(N)cccc2nn1 |  | inactive: -1.83%
Cc1ccc(NC(=O)c2ccc(Cl)c(N3C(=O)C=CC3=O)c2)cc1 | inconclusive: 23.9 µM [inhibitor, partial curve] | 
O=C(/C=C/c1ccc(O)c(O)c1)OC(Cc1ccc(O)c(O)c1)C(=O)O (stereo not given) | inconclusive: 2.39 µM [inhibitor, full curve] | 
CCN1C(=O)N/C(=C/c2ccc(C)o2)C1=O | inconclusive: 33.8 µM [inhibitor, single point] | 
O=C(NCC1CCN(Cc2cccc(Cl)c2)CC1)Nc1ccc(Cl)cc1 | inconclusive: 26.9 µM [inhibitor, single point] | 
Nc1cc(N)cc(C(=O)Nc2ccc3c(c2)C(=O)NC3=O)c1 | inconclusive: 26.9 µM [inhibitor, partial curve] | 
CCOC(=O)N(C)OC(=O)Nc1ccc(Cl)c(Cl)c1 | inconclusive: 26.9 µM [inhibitor, single point] | 
Cc1ccc(C(=O)OCC(=O)c2ccc(CC(=O)N3CCOCC3)s2)c(C)c1 | inconclusive: 37.9 µM [inhibitor, single point] | 
O=C(COC(=O)Cc1ccc(Cl)cc1)NCc1ccco1 | active: 6.75 µM | 
O=C(Cc1ccc(Cl)c(Cl)c1)Nc1ccc(S(=O)(=O)Nc2ncccn2)cc1 | active: 1.9 µM | 
O=C1C=C(c2ccccc2)C(=O)N1Nc1ccccc1 | inconclusive: 37.9 µM [inhibitor, single point] | 
O=C(CSC1=NS(=O)(=O)c2ccccc2N1)c1ccccc1 | inconclusive: 30.1 µM [inhibitor, partial curve] | 
O=C(NCCc1ccc(F)cc1)Nc1ccc([N+](=O)[O-])cc1 | inconclusive: 37.9 µM [activator, single point] | 
CCOc1ccc(C(c2c(C)[nH][nH]c2=O)c2c(C)[nH][nH]c2=O)cc1OC |  | inactive: -29.3%
CC(=O)c1ccc(NC(=O)N2CCN(c3cccc(Cl)c3)CC2)cc1 | inconclusive: 26.9 µM [inhibitor, single point] | 
CCN(CC)C(=S)Nc1ccc(Cl)c(Cl)c1 |  | inactive: -1.33%
NNC(=O)CNc1cccc(Cl)c1 | active: 26.9 µM | 

SMILES | Potency | activity change, negative = inhibition
CC1(C)C(=O)Nc2ccccc2N1C(=O)COC(=O)Cc1ccc(Cl)c(Cl)c1 | inconclusive: 21.3 µM [inhibitor, single point] | 
Cc1ccc(-c2ccc(C3C(C#N)=C(N)Oc4n[nH]c(C)c43)o2)cc1 (stereo not given) |  | inactive: -16.6%
O=C(/C=C/c1ccc(OCCCF)cc1)NCc1cccc(Cl)c1 | inconclusive: 33.8 µM [inhibitor, single point] | 
O=C(CSc1n[nH]c(=O)n1C1CC1)Nc1ccc(F)c(Cl)c1 | inconclusive: 23.9 µM [inhibitor, single point] | 
Cc1cccc(C)c1NC(=S)Nc1ccc(Cl)c(Cl)c1 |  | inactive: -14.4%
CC(C)N(C(=O)CSc1nnc(CNc2ccc(F)cc2)o1)C(C)C | inconclusive: 26.9 µM [inhibitor, partial curve] | 
CC(=O)Nc1cc(C(=O)CSc2nnc(C3CC3)n2C2CC2)ccc1O | inconclusive: 8.49 µM [inhibitor, full curve] | 
O=C(Nc1ccc2c(c1)OCO2)c1cccc2c1C(=O)N(Cc1cccnc1)C2 | inconclusive: 16.9 µM [inhibitor, partial curve, poor fit] | 
Cc1ccc(NC2c3ncccc3C(=O)N2c2ccccc2C)cc1C (stereo not given) | inconclusive: 33.8 µM [inhibitor, single point] | 
COc1ccc(C)cc1NC(=O)c1ccc2c(SCC(=O)O)c3c(nc2c1)CCCC3 | inconclusive: 19 µM [activator, partial curve] | 
Cc1nc([N+](=O)[O-])c(Br)n1Cc1ccc(Cl)c(Cl)c1 | inconclusive: 33.8 µM [inhibitor, single point] | 
O=C(NCCCN1CCCCCC1)c1ccc(CS(=O)(=O)Cc2ccccc2F)o1 | inconclusive: 6.75 µM [inhibitor, single point] | 
Cc1ccc(C(=O)Nc2nnc(CC(=O)N/N=C/c3ccc(O)c(O)c3)s2)cc1 |  | inactive: 4.02%
O=C(Cc1ccc(Br)cc1)Nc1cccc(S(=O)(=O)N2CCOCC2)c1 | inconclusive: 30.1 µM [inhibitor, partial curve] | 
O=C1CC(N2CCN(c3ccc(Cl)c(Cl)c3)CC2)C(=O)N1 (stereo not given) | inconclusive: 30.1 µM [inhibitor, partial curve] | 
O=C(COC(=O)/C=C/c1ccco1)Nc1ncc(C(F)(F)F)cc1Cl | active: 13.5 µM | 
Cc1nc(SCC(=O)N2CCOCC2)c2c(=O)n(C)c(=O)n(C)c2n1 |  | inactive: -1.99%
CCNc1nc(NCC)n2c(SCC(=O)Nc3ccc(C)c(C)c3)nnc2n1 | inconclusive: 26.9 µM [inhibitor, single point] | 
CC1(c2ccc(Cl)cc2Cl)NC(=O)N(CC(=O)Nc2ccc3[nH]c(=O)[nH]c3c2)C1=O (stereo not given) | inconclusive: 12 µM [inhibitor, partial curve] | 
CN1CCc2cccc3c2C1Cc1ccc(O)c(O)c1-3 (stereo not given) | active: 16.9 µM | 
Cc1ccc(C(=O)O)cc1NC(=S)NC(=O)Cc1ccccc1 | inconclusive: 21.3 µM [activator, single point] | 
CSc1nc(=S)c2[nH]c(=S)[nH]c2[nH]1 | active: 19 µM | 
O=C(O)c1ccc(-n2cccc2/C=C2/SC(=O)N(CC(=O)N3CCCC3)C2=O)cc1 | active: 5.36 µM | 
CC1=C(C(=O)Nc2ccccc2)C(c2ccc[nH]2)n2ncnc2N1 (stereo not given) |  | inactive: -13.3%

SMILES | Potency | activity change, negative = inhibition
S=C(NCc1ccco1)N1CCN(c2cccc(Cl)c2)CC1 | inconclusive: 30.1 µM [inhibitor, partial curve] | 
Cc1ccc(/C=C2/NC(=O)N(Cc3ccccc3F)C2=O)o1 |  | inactive: -27.2%
O=C(Nn1cnnc1)c1ccc(Cl)c([N+](=O)[O-])c1 | inconclusive: 10.7 µM [activator, partial curve] | 
O=C(NCc1ccco1)c1ccc2c(=O)n(Cc3ccco3)c(SCC(=O)N3CCCC3)nc2c1 | inconclusive: 4.78 µM [inhibitor, full curve] | 
Cc1ccc(-c2c[n+](Cc3cccc(Cl)c3)c3n2CCC3)cc1 | inconclusive: 30.1 µM [inhibitor, partial curve] | 
O=C(NCc1cccc(Cl)c1)c1ccc(N2CC3CC(C2)c2cccc(=O)n2C3)c(NC(=O)c2cccnc2)c1 (stereo not given) | inconclusive: 23.9 µM [inhibitor, partial curve] | 
CN(C)c1ccc(NC(=O)c2ccc(Cn3cc([N+](=O)[O-])cn3)cc2)cc1 | active: 26.9 µM | 
COC(=O)c1[nH]c2ccc(C)cc2c1NC(=O)CN1CCCc2ccccc21 | inconclusive: 9.53 µM [activator, partial curve] | 
Cn1c(=O)[nH]c(=O)c2c1nc(SCCN1CCCCC1)n2CCCc1ccccc1 | active: 16.9 µM | 
CCn1c(CCNC(=O)c2ccc(OC)cc2)nnc1SCc1ccc(Cl)c(Cl)c1 | active: 23.9 µM | 
Nc1ccc(O)c2c1C(=O)c1ccccc1C2=O |  | inactive: -23.8%
COc1ccccc1N1CCN(C(=O)C(C)CS(=O)(=O)c2ccc3c(c2)NC(=O)CS3)CC1 (stereo not given) | inconclusive: 16.9 µM [inhibitor, partial curve] | 
CC(=O)NC1=NC(=O)/C(=C/c2cc(C)n(-c3cccc(C(=O)O)c3)c2C)S1 | inconclusive: 26.9 µM [inhibitor, partial curve] | 
Nc1nc(SCc2ccc(Cl)c(Cl)c2)n[nH]1 | active: 13.5 µM | 
O=C1OC(/C(=C\Nc2cc(Cl)ccc2O)[N+](=O)[O-])c2ccccc21 (stereo not given) |  | inactive: -12.7%
CC(C)c1c(Cl)c(O)c(-c2ccccc2)c(=O)n1-c1ccc(F)cc1 | inconclusive: 37.9 µM [inhibitor, single point] | 
O=[N+]([O-])c1ccc(CSc2nnc(-c3cnccn3)o2)cc1 | inconclusive: 26.9 µM [inhibitor, partial curve] | 
Cc1ccc(-c2csc(Nc3ccc(S(N)(=O)=O)cc3)n2)o1 | inconclusive: 37.9 µM [inhibitor, single point] | 
COc1ccc(N=C2S/C(=C\c3ccc(OCC(=O)O)cc3)C(=O)N2CCc2c[nH]c3ccccc23)cc1 | inconclusive: 1.9 µM [inhibitor, full curve] | 
O=C(O)c1cccc2c1C(=O)c1cc(Br)ccc1S2(=O)=O | inconclusive: 19 µM [activator, partial curve] | 
COc1cccc(OCCc2c(C)n[nH]c2C)c1 | inconclusive: 21.3 µM [inhibitor, single point] | 
CC(C)(C)CC(=O)Nc1cc(S(=O)(=O)N2CCOCC2)ccc1N1CCCC1 | inconclusive: 26.9 µM [activator, partial curve] | 
